# Measurements reported in the supplement of paper PMC9446081.
# Hit rate of the full screen: of about 39,000 compounds, about 220 (0.56%) showed activity. Some of the results follow.
# System: Escherichia coli K-12 BW25113
# Experiment: relative growth (OD600 normalised to plate interquartile mean) (fraction); higher = less growth inhibition, active = 0.2 or less
# Conditions: 50 µM; LB; incubation time: overnight (16-24 h)
# 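Further: static incubation at 37 °C against the wild-type strain, values averaged over two biological replicates.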
row,Compound,relative growth
1,CNC(=O)c1c(N)cnn1C,inactive: 0.93
2,Cc1ccc(S(=O)(=O)N(C)C[C@H]2OCCCC[C@H](C)Oc3ccc(NS(C)(=O)=O)cc3C(=O)N([C@@H](C)CO)C[C@@H]2C)cc1,inactive: 0.991
3,COc1cccc(OC)c1O,inactive: 1.08
4,C[C@@H]1CCCCO[C@H](CN(C)Cc2ccc(Cl)c(Cl)c2)[C@H](C)CN([C@@H](C)CO)C(=O)c2cc(NS(=O)(=O)c3ccccc3)ccc2O1,inactive: 1.02
5,COCC(=O)Nc1ccc2c(c1)C(=O)N(C)[C@@H]1CC[C@H](CC(=O)NCc3ccccc3Cl)O[C@@H]1CO2,inactive: 1.02
6,C[C@@H]1CN([C@H](C)CO)C(=O)CCCn2cc(nn2)CO[C@@H]1CN(C)C(=O)Nc1ccc(C(C)(C)C)cc1,inactive: 1.02
7,COCCNC(=O)C[C@@H]1CC[C@H]2[C@H](COc3ccc(NC(=O)Nc4cccc(F)c4)cc3C(=O)N2C)O1,inactive: 0.913
8,COc1ccccc1C#Cc1ccc2c(c1)O[C@@H](CN(C)Cc1ccncc1)[C@@H](C)CN([C@H](C)CO)S2(=O)=O,inactive: 1.01
9,C[C@@H]1CN([C@H](C)CO)C(=O)c2cccc(NS(=O)(=O)c3ccccc3)c2O[C@H]1CN(C)S(=O)(=O)c1cccs1,inactive: 1
10,CC(C)NC(=O)Nc1ccc2c(c1)C(=O)N([C@@H](C)CO)C[C@@H](C)[C@H](CN(C)C(=O)Nc1cccc3ccccc13)OCCCC[C@@H](C)O2,inactive: 1
11,COC(=O)C=CC(=O)OC,inactive: 1.08
12,O=C(C[C@H]1C[C@H]2c3cc(NS(=O)(=O)c4ccc(F)cc4)ccc3O[C@H]2[C@@H](CO)O1)N1CCOCC1,inactive: 1
13,C[C@@H]1CN([C@@H](C)CO)C(=O)c2c(c3ccccc3n2C)-c2ccccc2CO[C@@H]1CN(C)C(=O)Nc1ccc(-c2ccccc2)cc1,inactive: 1.05
14,C[C@H](CO)N1C[C@H](C)[C@@H](CN(C)Cc2ccc(C(F)(F)F)cc2)Oc2ccc(NC(=O)Cn3cnnn3)cc2CC1=O,inactive: 0.916
15,CCOc1cc2ncc(C#N)c(Nc3ccc(OCc4ccccn4)c(Cl)c3)c2cc1NC(=O)/C=C/[C@H]1CCCN1C,inactive: 0.991
16,C=Cn1cnc2c1c(=O)n(C)c(=O)n2C,inactive: 0.999
17,Cc1noc(C)c1NC(=O)Nc1ccc2c(c1)C(=O)N([C@H](C)CO)C[C@H](C)[C@@H](CN(C)C(=O)Nc1ccc(F)cc1)OCCCC[C@H](C)O2,inactive: 0.987
18,CC#CC1(O)CCC2C3CCC4=CC(=O)CCC4=C3C(c3ccc(N(C)C)cc3)CC21C (stereo unspecified),inactive: 0.934
19,CCS(=O)(=O)N1CC[C@]2(CC1)CN([C@@H](CO)c1[nH]c3cc(ccc3c12)OC)C(=O)c1ccc(cc1)F,inactive: 1.02
20,O=C(C[C@@H]1CC[C@@H]2[C@H](COC[C@@H](O)CN2S(=O)(=O)c2ccc(Oc3ccccc3)cc2)O1)NCCN1CCCCC1,inactive: 1
21,C[C@@H]1CN([C@H](C)CO)C(=O)c2cc(C#CC3(O)CCCC3)cnc2O[C@@H]1CN(C)S(C)(=O)=O,inactive: 1.02

row,Compound,relative growth
1,COc1ccc(S(=O)(=O)Nc2ccc3c(c2)C(=O)N([C@H](C)CO)C[C@H](C)[C@H](CN(C)S(C)(=O)=O)OCCCC[C@H](C)O3)cc1,inactive: 0.986
2,C[C@H](CO)N1C[C@H](C)[C@@H](CN(C)C(=O)Cc2cccnc2)Oc2cc(C#Cc3ccccc3F)ccc2S1(=O)=O,inactive: 1.02
3,C[C@H](CO)N1C[C@H](C)[C@H](CN(C)C(=O)Nc2cccc3ccccc23)Oc2ccc(NC(=O)Cn3cnnn3)cc2CC1=O,inactive: 0.974
4,C[C@@H]1CCCCO[C@H](CN(C)S(=O)(=O)c2ccc(Cl)cc2)[C@H](C)CN([C@@H](C)CO)C(=O)c2cc(NC(=O)Nc3ccccc3)ccc2O1,inactive: 1.05
5,Cc1n[nH]c(=S)[nH]c1=O,inactive: 1
6,C[C@@H]1CN([C@H](C)CO)C(=O)c2cccc(NS(=O)(=O)c3ccc(Cl)cc3)c2O[C@@H]1CN(C)S(C)(=O)=O,inactive: 1
7,COC(=O)C1=CO[C@@H](O[C@@H]2O[C@H](CO)[C@@H](O)[C@H](O)[C@H]2O)[C@H]2[C@@H]1[C@H](OC(C)=O)C[C@]2(C)OC(C)=O,inactive: 1.04
8,C[C@@H]1CN([C@H](C)CO)C(=O)c2cc(NS(=O)(=O)c3cccs3)ccc2O[C@@H](C)CCCCO[C@H]1CN(C)Cc1ccc2c(c1)OCO2,inactive: 1.01
9,C[C@@H]1CN([C@H](C)CO)C(=O)c2cccc(NC(=O)Nc3cccc4ccccc34)c2O[C@H]1CN(C)S(=O)(=O)c1ccccc1,inactive: 0.987
10,CC(C)NC(=O)N(C)C[C@@H]1Oc2ccc(NC(=O)CCN3CCOCC3)cc2C(=O)N([C@H](C)CO)C[C@@H]1C,inactive: 0.987
11,C[C@H]1CN([C@@H](C)CO)C(=O)c2cc(-c3ccc(C(=O)N(C)C)cc3)cnc2O[C@@H]1CN(C)C(=O)c1cccnc1,inactive: 1.02
12,COc1ccc(NC(=O)Nc2ccc3c(c2)C(=O)N([C@@H](C)CO)C[C@@H](C)[C@@H](CN(C)S(=O)(=O)c2cccs2)OCCCC[C@@H](C)O3)cc1,inactive: 1.03
13,O=C(C[C@@H]1C=C[C@H](NC(=O)c2cccnc2)[C@@H](CO)O1)NCc1ccncn1,inactive: 1.01
14,CNC[C@H]1OCCCC[C@H](C)Oc2ccc(NC(=O)Nc3cccc4ccccc34)cc2C(=O)N([C@@H](C)CO)C[C@@H]1C,inactive: 0.992
15,COc1ccccc1-c1ccc2c(c1)O[C@H](CN(C)C(=O)c1ccncc1)[C@H](C)CN([C@@H](C)CO)S2(=O)=O,inactive: 0.981
16,C[C@@H]1CN([C@H](C)CO)C(=O)c2cc(C#Cc3ccccc3)cnc2O[C@H]1CN(C)C(=O)CCN1CCCCC1,inactive: 0.971
17,C[C@@H]1CCCCO[C@H](CN(C)Cc2ccc(C(F)(F)F)cc2)[C@H](C)CN([C@H](C)CO)C(=O)c2cc(NC(=O)CCC(F)(F)F)ccc2O1,inactive: 0.99
18,Cc1ccc(S(=O)(=O)N(C)C[C@H]2OCCCC[C@@H](C)Oc3ccc(NC(=O)Nc4cccc5ccccc45)cc3C(=O)N([C@H](C)CO)C[C@@H]2C)cc1,inactive: 1.01
19,C/C=C/c1ccc2c(c1)O[C@H](CN(C)S(=O)(=O)c1ccccc1OC)[C@@H](C)CN([C@H](C)CO)S2(=O)=O,inactive: 1.02
20,C[C@@H]1CCCCO[C@H](CN(C)S(C)(=O)=O)[C@H](C)CN([C@@H](C)CO)C(=O)c2cc(NS(=O)(=O)c3ccc(F)cc3)ccc2O1,inactive: 1
21,COc1ccc(C#Cc2ccc3c(c2)O[C@H](CN(C)S(=O)(=O)c2ccccc2F)[C@@H](C)CN([C@H](C)CO)S3(=O)=O)cc1,inactive: 1.03

row,Compound,relative growth
1,C[C@H](CO)N1C[C@H](C)[C@H](CN(C)S(=O)(=O)c2ccccc2)OCCCC[C@H](C)Oc2ccc(NC(=O)C3CCCCC3)cc2C1=O,inactive: 0.999
2,O=C1C2C=CC([C@H]3[C@@H]2C=CC(=O)[C@]32CO2)[C@@]12CO2 (stereo partly specified),inactive: 1.02
3,C1CN(C2CCSCC2)CCN1,inactive: 0.996
4,COc1cccc(S(=O)(=O)N[C@H]2C=C[C@@H](CC(=O)NC3CCC3)O[C@H]2CO)c1,inactive: 1.01
5,O=C(C[C@@H]1CC[C@H](NC(=O)Nc2ccc3c(c2)OCO3)[C@@H](CO)O1)NCCCN1CCOCC1,inactive: 1.01
6,C[C@@H]1CCCCO[C@@H](CN(C)C(=O)c2ccccc2)[C@H](C)CN([C@H](C)CO)C(=O)c2cc(NC(=O)Nc3ccccc3)ccc2O1,inactive: 0.988
7,C[C@H]1CN([C@@H](C)CO)C(=O)CCCn2cc(nn2)CO[C@H]1CN(C)C(=O)Nc1ccnc(N2CCOCC2)c1,inactive: 0.985
8,Clc1ccc(CSC(Cn2ccnc2)c2ccc(Cl)cc2Cl)cc1.O=[N+]([O-])O (stereo unspecified),inactive: 0.985
9,COCCOC(=O)N1C(=O)[C@@]2(c3cc(C#CC4=CCCCC4)ccc31)[C@H](c1ccc(OCCO)cc1)N1[C@H](c3ccccc3)[C@H](c3ccccc3)OC(=O)[C@H]1[C@@H]2C(=O)N1CCCCCCC1,inactive: 1.05
10,CCOC(=O)N1CCC(O)CC1,inactive: 0.992
11,CCS(=O)(=O)Nc1ccc2c(c1)C(=O)N(C)C[C@@H](OC)[C@@H](C)CN(CCC(F)(F)F)[C@@H](C)CO2,inactive: 1.02
12,Cc1ccc(S(=O)(=O)N(C)C[C@@H]2OCCCC[C@@H](C)Oc3ccc(NC(=O)c4ccccc4)cc3C(=O)N([C@@H](C)CO)C[C@H]2C)cc1,inactive: 0.991
13,Cc1noc(C)c1S(=O)(=O)Nc1ccc2c(c1)C(=O)N([C@H](C)CO)C[C@@H](C)[C@@H](CN(C)Cc1ccc(C(=O)O)cc1)O2,inactive: 1.02
14,COc1ccc(C#Cc2cnc3c(c2)C(=O)N([C@H](C)CO)C[C@@H](C)[C@@H](CN(C)C(=O)CC2CC2)O3)cc1,inactive: 0.997
15,C[C@@H]1CN([C@H](C)CO)C(=O)c2cc(C#Cc3cccnc3)cnc2O[C@@H]1CN(C)S(C)(=O)=O,inactive: 0.997
16,COc1ccc(NC(=O)N(C)C[C@H]2Oc3c(NC(=O)C4CCOCC4)cccc3C(=O)N([C@@H](C)CO)C[C@H]2C)cc1,inactive: 0.991
17,C[C@H]1CN([C@@H](C)CO)C(=O)Cc2cc(NC(=O)c3ccncc3)ccc2O[C@H]1CN(C)S(=O)(=O)c1ccc(Cl)cc1,inactive: 0.999
18,C=CCC[C@H](Cc1ccc(F)cc1)C(=O)OC[C@@H](NC(=O)[C@@H](CC=C)CC(=O)N(CCO)Cc1ccccc1)c1ccccc1,inactive: 1.1
19,COc1ccc(S(=O)(=O)N(C)C[C@H]2OCCCC[C@@H](C)Oc3ccc(NC(=O)CCC(F)(F)F)cc3C(=O)N([C@@H](C)CO)C[C@@H]2C)cc1,inactive: 1.01
